The source of these data is patent US20250163161A1.

Experiment [1] concerns the target PD-L1 on cells (A431; cells of the Promega PD-L1 blockade assay kit) (UniProt Q9NZQ7). In words: cell-based or functional assay.
Experiment [2] has as its target programmed death-ligand 1 (PD-L1), soluble, as used in BLI (UniProt Q9NZQ7). Description: BLI.

B1: ICI2_H2 (HCP-LCE heavy chain combined with an unrelated light chain) (antibody, part only; not given: Unrelated light chain, part only)
heavy: AVTLDESGGGLQTPGGALSLVCKASGFDFSSYDMAWVRQAPGKGLEWVAGIKSNGPWTNYGAAVKGRATISRDNGQSTVRLQLNNLRAEDTAIYYCAKPGAGYVGWDAAGTIDSWGHGTEVIVSSASTKGPSVFPLAPSSKSTSGGTAALGCLVKDYFPEPVTVSWNSGALTSGVHTFPAVLQSSGLYSLSSVVTVPSSSLGTQTYICNVNHKPSNTKVDKRV[left out - human IgG1 Fc with changes]
Regarding B1, the EC50, cell-based PD-1/PD-L1 blockage assay (luciferase activity) in experiment [1] was 8.6 nM. For the same molecule, in experiment [2], the Kd was 28.8 nM, the koff amounted to 0.0035 s⁻¹ and the kon was found to be 122000 M⁻¹ s⁻¹.
